From PubChem BioAssay AID686979 (National Center for Advancing Translational Sciences (NCATS), 2013)
Values joined by “and” are separate entries in the source; they are usually repeats but may differ in a detail not shown here. Equal entries are not always repeated. The whole screen tested about 420,000 compounds, of which about 50,000 (12%) were called active. The shares of active, inactive and inconclusive entries below differ from those in the screen. Calls come from the whole dose curve; as a rule, active = well fitted inhibition curve with a large enough effect; inconclusive = small, poorly fitted or top-dose-only effect; inactive = flat fitted curve, though single readings scatter. A potency beside an inconclusive call is a rough fit, not a confirmed value.

Assay: qHTS for Inhibitors of human tyrosyl-DNA phosphodiesterase 1 (TDP1): qHTS in cells in presence of CPT; note: nearly all actives have a fitted effect of over 55% in size
Conditions: chicken DT40 Tdp1-/-;hTDP1 cells + 20 nM CPT, ATP luminescence, 48 h; activity change, negative = growth inhibition: at 46.2 µM (top of the series) unless noted
Method in brief: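 Cell growth measured by CellTiter-Glo luminescence after a minimum 48 h, 37 C compound exposure with 20 nM CPT in Tdp1-knockout DT40 cells stably expressing hTDP1, seeded 400/well; qHTS titration format.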
% is set by controls: 0 for no effect and ±100 for the full control effect; potency is the fitted concentration of half-maximal effect; tags give direction and shape of the fitted curve.

| SMILES | Potency | activity change, negative = growth inhibition |
| --- | --- | --- |
| [N-]=[N+]=CC(=O)OC[C@H](N)C(=O)O | inactive and inconclusive: 33.5 µM [inhibitor, single point] | – |
| Cc1ccccc1CN1C(=O)C(C)N=C(c2ccccc2)c2ccccc21 (stereo not given) | inconclusive: 25.9 µM [inhibitor, single point] | – |
| O=C(NN=Cc1ccc(N(CCCl)CCCl)cc1)c1cccc([N+](=O)[O-])c1 | inconclusive: 4.11 µM [inhibitor, full curve] | – |
| CC/C(=N\N1CCCCCC1)c1c(O)n(-c2ccccc2C)c(=O)[nH]c1=O | active: 20.6 µM | – |
| O=C1NCN(c2ccccc2)C12CCN(C(c1cccs1)c1nnnn1C1CCCC1)CC2 (stereo not given) | inconclusive: 29.1 µM [inhibitor, single point] | – |
| Cc1nc(N)sc1CCN | inconclusive: 29.1 µM [inhibitor, single point] | – |
| COc1ccc(/C=C/C(=O)N2CC3C[C@@H](C2)Cn2c3cccc2=O)cc1OC | – | inactive: 17.4% [at 9.04 µM] |
| CCC(=Nc1ccc2c(c1)CCC2)c1c(O)n(-c2ccc(OC)cc2)c(=O)[nH]c1=O | active: 20.6 µM | – |
| O=C(Oc1ccc(Cl)cc1)N1CCOCC1 | inconclusive: 29.1 µM [inhibitor, single point] | – |
| Cc1nc2ccccc2c(=O)n1-c1ccccc1Cl | inconclusive: 67.2 µM [inhibitor, single point] | – |
| CC(C)(C)c1ccc(CN2C(=O)CN=C(c3ccccc3)c3ccccc32)cc1 | inconclusive: 29.1 µM [inhibitor, single point] | – |
| Cc1ncoc1C(=O)NCC1=C(c2ccc3ccccc3c2)C[C@@H]2CC[C@H]1N2Cc1ccco1 | inconclusive: 23.1 µM [inhibitor, single point] | – |
| O=C1N[C@H](Cc2ccccc2)C(=O)N2[C@@H]3[C@H](C[C@@H]12)c1ccccc1N3OOSc1ccccc1 | active: 16.4 µM | – |
| Cn1c(=O)oc2cc(S(=O)(=O)N3CCCc4ccccc43)ccc21 | active: 4.11 µM | – |
| C=CCn1c(O)c(C(CC)=NCCc2c[nH]c3ccccc23)c(=O)[nH]c1=O | inconclusive: 18.4 µM [inhibitor, single point] | – |
| CN1CCC2(CC1)c1ccccc1-c1ccccc12 | inconclusive: 18.4 µM [inhibitor, single point] | – |
| Cc1ccsc1C(=O)C1CCCN(Cc2cc(C(C)C)n[nH]2)C1 (stereo not given) | inactive | – |
| CN(C)CCOc1ccc(/C(=C(/CCCl)c2ccccc2)c2ccccc2)cc1 | inconclusive: 33.5 µM [inhibitor, single point] | – |
| CC(C)COP(=O)(OCC(C)C)C(O)c1cccnc1 (stereo not given) | inactive | – |
| CCCCn1c(=O)c(C(=O)NCc2ccccc2)c(O)c2ccccc21 | inconclusive: 25.9 µM [inhibitor, single point] | – |
| CCn1ccnc1CN1CCCC(C(=O)c2cc(Cl)ccc2OC)C1 (stereo not given) | inconclusive: 29.1 µM [inhibitor, single point] | – |
| NCCCP(=O)(O)CC1CCCCC1 | inactive | – |
| CCOc1ccc(N2C(=O)NC(=O)/C(=C\c3ccc(N4CCCCC4)o3)C2=O)cc1 | inactive | – |

| SMILES | Potency | activity change, negative = growth inhibition |
| --- | --- | --- |
| O=C(c1cc(-c2ccc(Cl)cc2)n[nH]1)N1CCN(S(=O)(=O)c2ccc(Br)s2)CC1 | inconclusive: 23.1 µM [inhibitor, single point] | – |
| OC(c1ccc(F)cc1)(c1ccc(F)cc1)[C@@H]1CCCN1 | inconclusive: 20.6 µM [inhibitor, single point] | – |
| O=c1[nH]c2ccccc2n1C1CCN(C(c2cccc3ccccc23)c2nnnn2Cc2ccccc2)CC1 (stereo not given) | active: 11.6 µM | – |
| CC(C(=O)c1c[nH]c2ccccc12)N1CCc2ccccc2C1 (stereo not given) | active: 16.4 µM | – |
| O=C(O)C1C2c3ccccc3C(O)C1(C(=O)O)c1ccccc12 (stereo not given) | inactive | – |
| Cc1ccc(C(=O)Nc2c(C(=O)Nc3ccc(C)c(C)c3)sc3nc(C)cc(C)c23)cc1 | inconclusive: 16.4 µM [inhibitor, single point] | – |
| C[N+]12CN3CN(CN(C3)C1)C2 | inconclusive: 20.6 µM [inhibitor, partial curve, poor fit] | – |
| Cn1c(O)c(C=Nc2ccccc2)c(=O)n(C)c1=O | inactive | – |
| CCOc1ccc(CN(CCc2ccc3c(c2)OCO3)Cc2ccc(OC)c(Br)c2)cc1 | inconclusive: 25.9 µM [inhibitor, single point] | – |
| C=CCn1c(O)c(C(C)=Nc2ccc(N(C)C)cc2)c(=O)[nH]c1=O | inconclusive: 16.4 µM [inhibitor, single point] | – |
| O=S(=O)(c1ccc(F)cc1)N1CCCCC1c1cccnc1 (stereo not given) | inconclusive: 16.4 µM [inhibitor, single point] | – |
| Cc1oc(-c2ccccc2)nc1CN1C(=O)CN=C(c2ccccc2)c2ccccc21 | active: 18.4 µM | – |
| O=C(CSC1c2ccccc2-c2ccccc21)N/N=C/c1ccccc1 | inconclusive: 0.58 µM [inhibitor, full curve, poor fit] | – |
| O=C1CN=C(c2ccc(Br)cc2)c2c(sc3c2CCCC3)N1CCN1CCCCC1 | active: 10.3 µM | – |
| COc1cccc(-c2cc(C(=O)Nc3cnn(Cc4ccc(Cl)cc4Cl)c3)no2)c1 | inconclusive: 16.4 µM [inhibitor, single point] | – |
| COc1ccc(NC(=O)c2cn(CCC#N)nc2-c2ccccc2)cc1 | inactive | – |
| O=C(CCl)NN=C(c1ccccc1)c1ccccc1 | active: 5.8 µM | – |
| C[C@H](CO)N1C[C@H](C)[C@@H](CN(C)C(=O)NC2CCCCC2)Oc2c(NC(=O)Nc3ccc4c(c3)OCO4)cccc2C1=O | inconclusive: 29.1 µM [inhibitor, single point] | – |
| Cc1c(NP(=O)(C(C)(C)C)C(C)(C)C)c(=O)n(-c2ccccc2)n1C | inactive | – |
| O=C1NC(=O)C(=Cc2cccc(OCCOc3ccccc3)c2)C(=O)N1 | inconclusive: 18.4 µM [inhibitor, single point] | – |
| COP(=S)(OC)Oc1ccc(S(N)(=O)=O)cc1 | inactive | – |
| Fc1ccccc1CCNCc1cccc(Cl)c1Cl | inconclusive: 13 µM [inhibitor, partial curve] | – |
